The test system of the test is NS3/4A protease (WT GT-1a, D168A variant, and GT-3a). The following applies: compared to the (S)-epimer 30.

As to `COc1ccc2nc(O[C@@H]3C[C@H]4C(=O)N[C@]5(C(=O)NS(=O)(=O)C6(C)CC6)C[C@H]5C=CCCCCC[C@H](NC(=O)O[C@H](C)C(C)C)C(=O)N4C3)c(C(F)(F)F)nc2c1` (stereo in doubt) [Compound 31, (R)-3-Methylbutan-2-yl ((2R,6S,13aS,14aR,16aS,Z)-2-((6-methoxy-3-(trifluoromethyl)quinoxalin-2-yl)oxy)-14a-(((1-methylcyclopropyl)sulfonyl)carbamoyl)-5,16-dioxo-1,2,3,5,6,7,8,9,10,11,13a,14,14a,15,16,16a-hexadecahydrocyclopropa[e]pyrrolo[1,2-a][1,4]diazacyclopentadecin-6-yl)carbamate], the “fold improvement in Ki values” was 2 fold.

Source of the values: paper PMC9228641 (Journal of medicinal chemistry, 2021).
